# PubChem BioAssay AID1508624 (National Center for Advancing Translational Sciences (NCATS), 2021)
# In all, about 48,000 compounds went through this assay and about 120 (0.25%) were called active. Inconclusive results, whose numbers are uncertain, are shown with a selection of clear calls. Calls follow the shape of the dose curve; as a rule, active = well fitted activation curve with a large enough effect; inconclusive = small, poorly fitted or top-dose-only effect, or another doubt; inactive = no such curve, though single readings can be large or run the other way. Where the call is inconclusive, the potency comes from a doubtful curve fit.
# Experiment: Primary qHTS for Identification of Small Molecule Activators of Huntingtin-Antisense Promoter Activity; also: nearly all actives have a fitted effect of over 55% in size
# Conditions: HEK293 HTT-AS promoter firefly luciferase reporter, 24 h; activity change, positive = activation: at 57.5 µM (top of the series), percent change from vehicle, -100% = no light unless noted
# Procedure, shortened: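 Firefly luciferase readout (Dual-Glo, 10 min RT) after 24 h, 37 °C compound exposure (final up to 57.5 uM) of HEK293 reporter cells cultured 24 h beforehand; PTC124 at 50 uM final as control inhibitor; activity scaled vehicle 0%, zero RLU -100%.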
# Potency is read from the fitted curve at half-maximal effect; tags tell the direction and shape of the fitted curve.
SMILES,"activity change, positive = activation",Potency
Cc1ccc(CNC(=O)c2ccc(-c3nc(CN4CCc5ccccc54)c(C)o3)cc2)cc1,inactive: -27%,–
O=C(CSc1n[nH]c(-c2ccccc2)n1)N1CCCCC1,–,"inconclusive: 12.6 µM [activator, partial curve, poor fit]"
CCOc1ccc(CC(=O)NCCc2csc3nc(-c4ccccc4F)nn23)cc1,inconclusive: -72.6% [activator],–
CN1CCC[C@@H]1c1cccnc1,inactive: -17.4%,–
CC(=O)N1CCCc2cc(S(=O)(=O)N(C)CC(=O)Nc3ccc(F)c(Cl)c3)ccc21,inconclusive: 25.1% [activator],–
CC1CCCCN1C(=O)CSc1nnc(-c2cccc(Cl)c2)o1 (configuration not stated),–,"inconclusive: 8.91 µM [activator, partial curve, poor fit]"
CCc1ccc(CN(Cc2ccco2)C(=O)c2cc(-c3ccc(Cl)cc3)on2)cc1,inconclusive: -48% [activator],–
O=C1NC(=O)C(=Cc2ccc(-c3ccc(F)cc3O)o2)S1,–,"inconclusive: 4.85 µM [activator, full curve, poor fit]"
Cc1nc2cc(-c3cccc(F)c3)nn2c(C)c1CCC(=O)N1CCN(c2ccc(F)cc2)CC1,inactive: -61.2%,–
CCN(CC)c1ccc2cc(-c3nnc(-c4cccc(Cl)c4)o3)c(=O)oc2c1,–,"inconclusive: 20 µM [activator, partial curve, poor fit]"
Cc1ccc(NC(=O)c2ncn(-c3ccccc3)n2)c(Cl)c1,–,"inconclusive: 6.31 µM [activator, full curve, poor fit]"
N=C(N)c1ccc2cc(OC(=O)c3ccc(N=C(N)N)cc3)ccc2c1,–,inactive
COc1ccc(-c2cn3c(n2)sc2cc(C(=O)Nc4cc(Cl)ccc4C)ccc23)cc1,–,"inconclusive: 22.4 µM [activator, partial curve, poor fit]"
Cc1nc2cc(-c3ccccc3)nn2c(C)c1CCC(=O)N1CCN(c2ccccc2)CC1,inactive: -67.5%,–
Cc1ccc2nc(-c3ccc(NC(=O)COc4ccc(Cl)c(C)c4)cc3)sc2c1,–,"inconclusive: 0.178 µM [activator, full curve, poor fit]"
O=C(Nc1ccc2nc(SCC(=O)N3CCCC3)sc2c1)c1ccccc1F,inactive: -15.8%,–
Cc1ccccc1-c1nnc(SCC(=O)N2CCCCC2)o1,–,"inconclusive: 15.8 µM [activator, partial curve]"
CCCS(=O)(=O)Nc1cc(-c2cn3ccc(C)cc3n2)ccc1C,–,"inconclusive: 11.2 µM [activator, partial curve]"
COc1cc2c(cc1-c1c(C)noc1C)ncc1[nH]c(=O)n([C@H](C)c3ccccn3)c12,inactive: 5.93%,–
Cc1cccc(NC(=O)Cn2c(=O)c3cccn3c3ccccc32)c1C,inactive: -11.2%,–
Cc1cccc(-c2nnc(SCC(=O)N3CCCCC3)o2)c1,–,"inconclusive: 2.82 µM [activator, full curve]"
CCN(Cc1ccccc1)C(=O)Cn1c(=O)n(-c2cccc(C)c2)c(=O)c2c1c1cc(OC)ccc1n2C,inactive: -17.5%,–
O=C(/C=C/c1ccccc1Cl)Nc1nc(-c2cccs2)ns1,–,"inconclusive: 7.08 µM [activator, full curve, poor fit]"

SMILES,"activity change, positive = activation",Potency
O=C(Cn1cc(SCc2c(F)cccc2Cl)c2ccccc21)N1CCCC1,–,"inconclusive: 4.47 µM [activator, partial curve]"
COc1ccc(Nc2c(-c3ccc(C)o3)nc3cc(C)ccn23)cc1,–,"inconclusive: 3.16 µM [activator, full curve]"
O=C(O)c1cc(-c2ccccc2)nc2ccccc12,–,"inconclusive: 35.5 µM [activator, single point]"
CCc1c(C)nc2nncn2c1NCc1ccccc1,inactive: -37.5%,–
COc1ccc(NCc2cccn2-c2nnc(N3CCCCCC3)s2)cc1,inactive: -65.5%,–
Cc1ccc(CN(C(=O)COc2ccccc2Cl)c2ccccn2)o1,–,"inconclusive: 20 µM [activator, partial curve, poor fit]"
COc1ccc(Nc2c3c(nc4ccccc24)CCC3)cc1Cl,inactive: -42.6%,–
CCOc1ccc(NC(=O)Cn2c(=O)n(Cc3ccc4c(c3)OCO4)c(=O)c3ccc(C(=O)NC4CCCCC4)cc32)cc1,inactive: -16.5%,–
COc1ccc(OC)c(CNC(=O)Nc2cn(CC(C)C)c(=O)c3ccccc23)c1,inconclusive: -29.5% [activator],–
N#Cc1ccc(-c2cccs2)nc1SCc1ccc(Br)cc1,–,"inconclusive: 1.58 µM [activator, partial curve, poor fit]"
c1ccc([C@H]2CN3CCSC3=N2)cc1,–,"inconclusive: 27.3 µM [activator, single point]"
O=C(Nc1ccc(F)cc1)c1ccc2c(=O)n3c(nc2c1)CCCCC3,–,"inconclusive: 7.94 µM [activator, partial curve]"
CCN(Cc1ccccc1)c1ncnc2c1cnn2-c1ccc(F)cc1,–,"inconclusive: 2 µM [activator, full curve, poor fit]"
Cc1ccc(Cn2c(SCc3ccc(C(=O)N4CCCCC4)cc3)nc3ccncc32)cc1,inactive: -59.7%,–
O=C(NCc1ccccc1Cl)c1ccccc1NC(=O)c1nsc2ccccc12,–,"inconclusive: 12.6 µM [activator, partial curve, poor fit]"
Cn1c(/C(C#N)=C/c2ccccc2Br)nc2ccccc21,–,"inconclusive: 1.78 µM [activator, full curve, poor fit]"
COc1ccc(F)c(F)c1C(=O)c1cnc(NC2CCN(S(C)(=O)=O)CC2)nc1N,inactive: -40%,–
Clc1ccc2c(c1)-n1cc(-c3ccccc3)nc1CO2,–,"inconclusive: 12.6 µM [activator, partial curve, poor fit]"
Cc1ccc(-n2ncc3c(N4CCN(C)CC4)ncnc32)cc1Cl,–,"inconclusive: 1.58 µM [activator, full curve, poor fit]"
CC(=O)Nc1cc(-c2nc3ccccc3s2)ccc1C,–,active: 6.31 µM
O=C(CSc1nnc2[nH]c(=O)cc(-c3ccccc3)n12)Nc1ccc(F)cc1F,–,"inconclusive: 11.2 µM [activator, partial curve]"
Cc1cccc(N(C)C(=O)CCNS(=O)(=O)c2ccc3c(c2)CCN3C(=O)C2CC2)c1,inconclusive: -38.2% [activator],–
COc1ccc(C2CNC(=O)C2)cc1OC1CCCC1 (configuration not stated),–,"inconclusive: 27.3 µM [activator, single point]"

SMILES,"activity change, positive = activation",Potency
Cc1ccc(CN2CCc3nc(N4CCN(C)CC4)ncc3C2)s1,inactive: -9.91%,–
CC(=O)O[C@@H]1CC2C3CCc4cc(OC(=O)c5ccccc5)ccc4C3CCC2(C)[C@H]1OC(C)=O (some centres not stated),inactive: -1.41%,–
O=C(NCC1CCCO1)c1c[nH]c2ccc(S(=O)(=O)Nc3cccc(C(F)(F)F)c3)cc2c1=O (configuration not stated),inactive: -18.2%,–
COC(=O)c1ccc(Cn2nnc3c(=O)[nH]c(C4CCCN(S(=O)(=O)c5cccc(Cl)c5)C4)nc32)cc1 (configuration not stated),–,"inconclusive: 1.58 µM [activator, partial curve]"
O=C(CSc1nnc(-c2ccc([N+](=O)[O-])cc2)o1)Nc1ccccc1,–,active: 1.78 µM
Cc1ccc(C2=Nc3ccccc3N(CC(=O)NCc3ccccc3Cl)C(=O)C2)cc1C,–,"inconclusive: 1.78 µM [activator, full curve, poor fit]"
O=C(C=CC=Cc1ccc2c(c1)OCO2)N1CCCCC1,–,"inconclusive: 6.85 µM [activator, full curve]"
Cc1ccc(CSC2=Nc3ccccc3C3=NC(CC(=O)NC4CCCCC4)C(=O)N23)cc1 (configuration not stated),–,"inconclusive: 8.91 µM [activator, partial curve]"
Cc1ccc2nc(-c3ccc(NC(=O)COc4ccccc4)cc3)sc2c1,–,"inconclusive: 0.1 µM [activator, full curve, poor fit]"
CCN(CC)C(=O)c1cc(-c2ccc(Cl)cc2)on1,–,"inconclusive: 2.82 µM [activator, full curve]"
O=C(COc1ccccc1[N+](=O)[O-])Nc1ccc(-c2nc3ccccc3s2)cc1,–,"inconclusive: 0.794 µM [activator, full curve, poor fit]"
COc1ccc(NC(=O)c2cnc[nH]2)cc1,–,"inconclusive: 17.8 µM [activator, partial curve]"
COc1ccc(-c2cn3nc(SCC(=O)Nc4ccc(C)c(Cl)c4)ccc3n2)cc1,–,"inconclusive: 1 µM [activator, partial curve, poor fit]"
Cc1cc(C)c(NC(=O)COc2ccc3c(C)cc(=O)oc3c2)c(C)c1,–,"inconclusive: 6.31 µM [activator, single point]"
COc1ccc(N2CCN(C(=O)c3cccc(NC(=O)c4nsc5ccccc45)c3)CC2)cc1,–,"inconclusive: 2.82 µM [activator, partial curve, poor fit]"
CC(=O)c1ccc(OCC(=O)N2CCCCC2)cc1,–,"inconclusive: 39.8 µM [activator, single point]"
COc1ccccc1-c1noc(-c2ccc(NC(C)C)c([N+](=O)[O-])c2)n1,–,"inconclusive: 1.58 µM [activator, partial curve, poor fit]"
O=C(CSc1cn(CC(=O)N2CCCCC2)c2ccccc12)Nc1ccc(C(F)(F)F)cc1,inconclusive: 27.4% [activator],–
Cc1cccc(NS(=O)(=O)c2ccc3c(c2)CCN3C(=O)C2CCC2)c1,inactive: -51.8%,–
O=C(Nc1cccc(F)c1)c1ccc(-c2ccccc2)s1,–,"inconclusive: 20 µM [activator, single point]"
CCCN(CCC)CCCNC(=O)Cn1cnc2sc(C)c(S(=O)(=O)N3CCC(C)CC3)c2c1=O,–,"inconclusive: 35.5 µM [activator, single point]"
